Data taken from publication PMC6744581.
Where a chain is given by its changes, count along the chain named. Results are given in words; binding and its absence hold for the method and conditions named. Binding seen in cells or lysates may run through a third protein. Some entries that bind do so weakly or less than the wild type. For some of these results: Where a sequence is shown, tags or fusion partners need not be part of it.

Amino acid sequences for entries named in this document (tags omitted). A change or cut given only in a name is not applied to a line headed by its entry.
UniProt P61586: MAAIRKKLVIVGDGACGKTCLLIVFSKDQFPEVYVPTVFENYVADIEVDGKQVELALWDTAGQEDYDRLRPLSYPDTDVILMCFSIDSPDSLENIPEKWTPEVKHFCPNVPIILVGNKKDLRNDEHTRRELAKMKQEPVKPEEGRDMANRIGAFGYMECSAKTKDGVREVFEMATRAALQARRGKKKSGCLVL
UniProt Q13464: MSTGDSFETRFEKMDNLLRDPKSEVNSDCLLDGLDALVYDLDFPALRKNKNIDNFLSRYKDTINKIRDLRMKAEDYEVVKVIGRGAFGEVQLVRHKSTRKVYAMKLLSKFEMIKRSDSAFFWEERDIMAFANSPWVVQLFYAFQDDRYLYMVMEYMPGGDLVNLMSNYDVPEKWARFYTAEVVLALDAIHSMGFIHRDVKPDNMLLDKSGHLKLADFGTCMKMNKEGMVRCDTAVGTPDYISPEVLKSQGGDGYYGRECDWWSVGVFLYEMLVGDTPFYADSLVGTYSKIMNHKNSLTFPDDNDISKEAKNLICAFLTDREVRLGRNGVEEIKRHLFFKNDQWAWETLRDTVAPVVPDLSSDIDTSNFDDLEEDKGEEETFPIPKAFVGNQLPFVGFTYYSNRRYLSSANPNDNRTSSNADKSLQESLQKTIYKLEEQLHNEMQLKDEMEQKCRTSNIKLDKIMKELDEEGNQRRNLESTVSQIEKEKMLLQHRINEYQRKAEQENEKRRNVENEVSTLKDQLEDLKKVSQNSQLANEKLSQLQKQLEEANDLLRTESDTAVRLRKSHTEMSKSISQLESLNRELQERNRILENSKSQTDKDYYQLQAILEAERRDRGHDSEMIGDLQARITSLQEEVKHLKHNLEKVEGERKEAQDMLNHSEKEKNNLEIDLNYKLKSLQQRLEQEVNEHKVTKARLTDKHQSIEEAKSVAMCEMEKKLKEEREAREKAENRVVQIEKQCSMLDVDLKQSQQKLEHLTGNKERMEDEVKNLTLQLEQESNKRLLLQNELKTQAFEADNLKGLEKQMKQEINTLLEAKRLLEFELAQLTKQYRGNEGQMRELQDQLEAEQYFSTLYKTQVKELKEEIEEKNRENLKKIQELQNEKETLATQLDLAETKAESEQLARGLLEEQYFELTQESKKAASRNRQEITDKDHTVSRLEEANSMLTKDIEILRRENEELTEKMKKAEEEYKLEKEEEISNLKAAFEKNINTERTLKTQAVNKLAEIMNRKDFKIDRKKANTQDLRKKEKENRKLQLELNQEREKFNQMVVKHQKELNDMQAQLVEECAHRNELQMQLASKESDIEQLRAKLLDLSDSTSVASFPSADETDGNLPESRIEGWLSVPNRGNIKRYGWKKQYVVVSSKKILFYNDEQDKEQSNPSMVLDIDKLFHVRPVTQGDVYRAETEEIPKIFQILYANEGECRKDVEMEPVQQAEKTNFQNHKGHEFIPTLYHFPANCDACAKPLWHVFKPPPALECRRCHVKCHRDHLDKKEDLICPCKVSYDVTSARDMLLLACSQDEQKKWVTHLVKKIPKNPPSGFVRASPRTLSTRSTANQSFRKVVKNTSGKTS

Key:
GFP-RhoA^G14V = GFP-RhoA^G14V (UniProt P61586); experiment: co-IP; GFP-RhoA^G14V co-expressed with myc-ROCK1 deletion mutants (Supplementary Figure S2A); beads and cells not told for this experiment
[1] = target: T1, GFP-RhoBTB1^1–210 (human) (UniProt O94844); experiment: co-IP; COS7 cells co-transfected, lysed after 24 h in IP lysis buffer (1% Triton X-100, 20 mM Tris pH 8, 130 mM NaCl, 1 mM DTT); GFP fusion held on GFP-trap beads; blots for myc or HA and GFP
T1 sequence: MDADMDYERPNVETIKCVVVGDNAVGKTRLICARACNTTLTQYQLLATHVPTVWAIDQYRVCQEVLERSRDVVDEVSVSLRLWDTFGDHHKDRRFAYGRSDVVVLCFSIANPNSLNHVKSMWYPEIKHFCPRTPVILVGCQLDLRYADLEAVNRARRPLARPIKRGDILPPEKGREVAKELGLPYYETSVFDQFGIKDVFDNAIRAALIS

GFP-RhoBTB1 (human) = target: T2, GFP-RhoBTB1 (human) (UniProt O94844); experiment: as above
T2 sequence: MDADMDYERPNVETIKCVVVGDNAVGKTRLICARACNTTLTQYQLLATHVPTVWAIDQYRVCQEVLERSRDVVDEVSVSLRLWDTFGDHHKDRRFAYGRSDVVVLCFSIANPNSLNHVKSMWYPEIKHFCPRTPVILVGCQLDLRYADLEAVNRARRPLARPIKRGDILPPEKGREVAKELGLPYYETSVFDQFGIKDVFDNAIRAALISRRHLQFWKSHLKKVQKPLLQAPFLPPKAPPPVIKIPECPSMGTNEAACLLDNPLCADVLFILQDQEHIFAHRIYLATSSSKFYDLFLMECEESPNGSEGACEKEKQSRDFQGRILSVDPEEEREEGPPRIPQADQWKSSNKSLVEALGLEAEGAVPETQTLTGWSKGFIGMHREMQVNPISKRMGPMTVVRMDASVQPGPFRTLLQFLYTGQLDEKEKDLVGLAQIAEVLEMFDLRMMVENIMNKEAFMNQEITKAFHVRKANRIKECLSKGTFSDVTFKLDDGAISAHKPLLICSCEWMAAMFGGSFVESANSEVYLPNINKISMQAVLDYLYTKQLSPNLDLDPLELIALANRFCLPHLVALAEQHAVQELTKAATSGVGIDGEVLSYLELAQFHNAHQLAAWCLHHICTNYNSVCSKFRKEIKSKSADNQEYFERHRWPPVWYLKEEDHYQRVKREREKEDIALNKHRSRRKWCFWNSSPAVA

[2] = target: T3, GFP-RhoBTB1^D198A (human) (UniProt O94844); experiment: as above
T3 sequence: T2 sequence with D198A

GFP-RhoBTB1^E64A (human) = target: T4, GFP-RhoBTB1^E64A (human) (UniProt O94844); experiment: as above
T4 sequence: T2 sequence with E64A

[3] = target: T5, GFP-RhoBTB1 E/K (E64A/K197A) (human) (UniProt O94844); experiment: as above
T5 sequence: T2 sequence with E64A, K197A

[4] = target: T6, GFP-RhoBTB1^K197A (human) (UniProt O94844); experiment: as above
T6 sequence: T2 sequence with K197A

[5] = target: T7, GFP-RhoBTB1 R/C/E (R60A/C62A/E64A) (human) (UniProt O94844); experiment: as above
T7 sequence: T2 sequence with R60A, C62A, E64A

binding (GFP-RhoA^G14V)	binding [1]	binding (GFP-RhoBTB1 (human))	Substance	also measured
binds	no binding		myc-ROCK1^1–420 (from UniProt Q13464 1-420) (domain or fragment)	
	binds	binds	myc-ROCK1^1–540 (from UniProt Q13464 1-540) (domain or fragment)	
binds	binds	binds	myc-ROCK1^1–727 (from UniProt Q13464 1-727) (domain or fragment)	binding [2]: binds; binding (GFP-RhoBTB1^E64A (human)): binds; binding [3]: binds; binding [4]: binds; binding [5]: binds
	binds	binds	myc-ROCK1^1–1080 (from UniProt Q13464 1-1080) (domain or fragment)	
		binds	myc-ROCK1^375–727 (from UniProt Q13464 375-727) (domain or fragment)	
		no binding	myc-ROCK1^1096–1354 (from UniProt Q13464 1096-1354) (domain or fragment)	
